{
  "source": "PubChem BioAssay AID624418",
  "about": "(National Center for Advancing Translational Sciences (NCATS), 2012)",
  "note": "Screen size: about 410,000 compounds; about 530 (0.13%) were called active. Inconclusive results, whose numbers are uncertain, are shown with a selection of clear calls. The call rests on the fitted dose curve; in most records, active means well fitted inhibition curve with a large enough effect; inconclusive means small, poorly fitted or top-dose-only effect, or another doubt; inactive means no such curve, though single readings can be large or run the other way. Potencies of inconclusive entries are doubtful fits and often do not repeat. On the % scale 0 is the no-effect control and ±100 the full control effect; potency means the concentration at half of the fitted maximal effect.",
  "data": [
    {"test": "qHTS of GLP-1 Receptor Inverse Agonists: Cytotox Screen", "details": "HEK293 cAMP-luciferase reporter cells, luminescence, 24 h; activity change, negative = inhibition: at 38.3 µM (top of the series) unless noted", "method_in_brief": "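Cells in DMEM/10% Nu serum/1% pen-strep, 1536-well format. Pre-incubated 12 h, dosed with 23 nL compound, incubated a further 24 h. Luciferase detection, 12 min at room temp, luminescence.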", "values": [
      {"smiles": "COc1cccc(/C=N/NC(N)=S)c1OCc1ccccc1Cl", "Potency": "inconclusive: 14.1 µM [inhibitor, single point]"},
      {"smiles": "O=C(O)c1ccccc1Nc1ccc([N+](=O)[O-])c2nonc12", "Potency": "inconclusive: 11.2 µM [inhibitor, partial curve, poor fit]"},
      {"smiles": "CCN1CCN(P2(=O)C=C(c3ccccc3)OC(c3ccccc3)=C2)CC1", "Potency": "inconclusive: 22.4 µM [inhibitor, single point]"},
      {"smiles": "COc1ccc2nc(NC(=O)c3nc(S(=O)(=O)Cc4cccc(C)c4)ncc3Cl)sc2c1", "Potency": "inconclusive: 28.2 µM [inhibitor, single point]"},
      {"smiles": "COc1ccc2nc(NC(=O)c3cccc(-c4cc5ccccc5oc4=O)c3)sc2c1", "Potency": "inconclusive: 12.6 µM [inhibitor, partial curve, poor fit]"},
      {"smiles": "O=C1C=CC(O)C2(CO)OC12", "note": "(stereo not drawn)", "Potency": "inconclusive: 28.2 µM [inhibitor, single point]"},
      {"smiles": "COC(=O)c1cccc(Nc2cc(C)nc(-c3ccccc3O)n2)c1", "Potency": "inconclusive: 28.2 µM [inhibitor, single point]"},
      {"smiles": "O=C(COc1ccc2ccccc2c1)N1CCN(C2CCN(Cc3ccccc3)CC2)CC1", "Potency": "inconclusive: 28.2 µM [inhibitor, single point]"},
      {"smiles": "COc1ccc(NC2=NCC(Cc3ccc(Br)cc3)S2)cc1", "note": "(stereo not drawn)", "Potency": "inconclusive: 10 µM [inhibitor, single point]"},
      {"smiles": "COc1ccc(OC)c(-n2c(O)c(C=NCc3ccc4c(c3)OCO4)c(=O)[nH]c2=O)c1", "activity change, negative = inhibition": "inactive: 0.798%"},
      {"smiles": "CCOC(=O)c1cc(-c2ccccc2)n(CC(=O)Nc2ccc(OC)c(OC)c2)c1C", "Potency": "inconclusive: 14.1 µM [inhibitor, single point]"},
      {"smiles": "CCOc1ccc(N(C(C)C(=O)Nc2cc(Cl)ccc2OC)S(C)(=O)=O)cc1", "note": "(stereo not drawn)", "Potency": "inconclusive: 4.47 µM [inhibitor, partial curve]"},
      {"smiles": "CC(=O)NC(c1ccccc1)c1cc(Cl)c2cccnc2c1O", "note": "(stereo not drawn)", "Potency": "inconclusive: 2.82 µM [inhibitor, full curve, poor fit]"},
      {"smiles": "O=c1[nH]c2ccccc2n1C1CCN(C(c2nnnn2Cc2ccccc2)C2CC2)CC1", "note": "(stereo not drawn)", "Potency": "inconclusive: 10 µM [inhibitor, partial curve]"},
      {"smiles": "Cc1ccc(C(C)C)c(OCC(=O)Nc2cc(-c3nc4ccccc4[nH]3)ccc2C)c1", "Potency": "inconclusive: 22.4 µM [inhibitor, single point]"},
      {"smiles": "CC(C)OCc1cc(CN2CCN(c3cccc(C(F)(F)F)c3)CC2)c(O)c2ncccc12", "Potency": "inconclusive: 3.98 µM [inhibitor, full curve, poor fit]"},
      {"smiles": "COc1ccc(-c2ccc(OC)c(OC)c2OC)cc1", "Potency": "inconclusive: 1 µM [inhibitor, partial curve, poor fit]"},
      {"smiles": "O=C1NC(=S)NC(=O)C1=Cc1cccn1-c1ccc(O)cc1", "Potency": "inconclusive: 28.2 µM [inhibitor, single point]"},
      {"smiles": "O=[N+]([O-])c1ccc(N=Nc2c(Cl)cc(O)cc2Cl)cc1", "Potency": "inconclusive: 3.55 µM [inhibitor, partial curve, poor fit]"},
      {"smiles": "CCOc1cc(CNc2ccc3cn[nH]c3c2)ccc1OC", "Potency": "inconclusive: 10 µM [inhibitor, partial curve, poor fit]"},
      {"smiles": "COc1cc(C2c3cc4c(cc3OC(NCCc3ccccc3)C2C)OCO4)cc(OC)c1OC", "note": "(stereo not drawn)", "Potency": "inconclusive: 0.891 µM [inhibitor, full curve]"},
      {"smiles": "Cc1nc2c(=O)n(C)c(=O)nc-2n(C)n1", "Potency": "active: 2 µM"},
      {"smiles": "CC(C)C[C@@H]1COc2cccc(N3CCN(C)CC3)c2S(=O)(=O)N1", "activity change, negative = inhibition": "inactive: -4.08%"},
      {"smiles": "CC(=O)OC12COC1CC(O)C1(C)C(=O)C(O)C3=C(C)C(O)CC(O)(C(OC(=O)c4ccccc4)C21)C3(C)C", "note": "(stereo not drawn)", "Potency": "inconclusive: 0.501 µM [inhibitor, full curve]"},
      {"smiles": "CC1=C(/C=C/C(C)=C/C=C/C(C)=C/C(=O)Nc2ccc(O)cc2)C(C)(C)CCC1", "Potency": "inconclusive: 11.2 µM [inhibitor, partial curve, poor fit]"},
      {"smiles": "C#CCOCCOCCOCCNc1nc(N2CCN(C(=O)CCCCCCCCCCNC(=O)[C@H]([C@@H](C)CC)n3cc(CCCCN=C(N)N)nn3)CC2)nc(N2CCN(C(=O)CCCCCCCCCCNC(=O)[C@H](CO)n3cc(CCCCCN)nn3)CC2)n1", "Potency": "inconclusive: 28.2 µM [inhibitor, single point]"},
      {"smiles": "COc1ccc2[nH]c(C)c(CCNCc3cn(C)c4ccccc34)c2c1", "Potency": "inconclusive: 31.6 µM [inhibitor, partial curve, poor fit]"},
      {"smiles": "NC(=S)N/N=C\\c1c2ccccc2cc2ccccc12", "Potency": "inconclusive: 2.51 µM [inhibitor, full curve, poor fit]"},
      {"smiles": "CCOC(=O)c1[nH]c2ccc(OC)cc2c1NC(=S)N1CCN(c2ccccc2OC)CC1", "Potency": "inconclusive: 10 µM [inhibitor, partial curve, poor fit]"},
      {"smiles": "C[N+](C)(C)CC1CCCC(C[N+](C)(C)C)C1=O", "note": "(stereo not drawn)", "Potency": "inconclusive: 10 µM [inhibitor, partial curve, poor fit]"},
      {"smiles": "COc1cc([N+](=O)[O-])c2nc(C)ccc2c1[N+](=O)[O-]", "Potency": "inconclusive: 11.2 µM [inhibitor, single point]"},
      {"smiles": "CC(Cc1ccccc1Sc1ccc(O)cc1)N(C)C", "note": "(stereo not drawn)", "Potency": "inconclusive: 25.1 µM [inhibitor, single point]"},
      {"smiles": "COC(=O)C1=C(c2cccc(OCc3ccccc3)c2)C[C@@H]2CC[C@H]1N2C(=O)NCCCOC(C)C", "Potency": "inconclusive: 0.501 µM [inhibitor, full curve, poor fit]"},
      {"smiles": "COc1ccc(CNCCc2c[nH]c3ccccc23)c(OC)c1C", "Potency": "inconclusive: 28.2 µM [inhibitor, single point]"},
      {"smiles": "CCCCc1c(-c2ccccc2OC)ncn1Cc1ccc(-c2ccccc2)cc1", "Potency": "inconclusive: 28.2 µM [inhibitor, single point]"},
      {"smiles": "CCCCn1c(=N)n(CC(O)COc2ccccc2)c2ccccc21", "note": "(stereo not drawn)", "Potency": "inconclusive: 28.2 µM [inhibitor, single point]"},
      {"smiles": "C=C1C(=O)O[C@@H]2C[C@@H](C)[C@@H]3C=CC(=O)[C@@]3(C)[C@@H](OC(=O)CC(=O)O[C@H]3[C@@H]4C(=C)C(=O)O[C@@H]4C[C@@H](C)[C@@H]4C=CC(=O)[C@]43C)[C@H]12", "Potency": "inconclusive: 0.355 µM [inhibitor, full curve, poor fit]"},
      {"smiles": "O=C1c2[nH]nc(-c3ccccc3)c2C(c2ccccc2)N1c1cccc(C(F)(F)F)c1", "note": "(stereo not drawn)", "Potency": "inconclusive: 10 µM [inhibitor, single point]"},
      {"smiles": "Cc1cc(NC(=O)C(C)SCC(=O)Nc2cc(C(F)(F)F)ccc2N2CCCCC2)no1", "note": "(stereo not drawn)", "Potency": "inconclusive: 28.2 µM [inhibitor, single point]"},
      {"smiles": "Cc1cc(C)c(NC2=NCCCS2)c(C)c1", "activity change, negative = inhibition": "inactive: 15.3%"},
      {"smiles": "O=C1C(=O)c2ccccc2-c2ccccc21", "Potency": "inconclusive: 3.55 µM [inhibitor, full curve]"},
      {"smiles": "O=c1[nH]c(=O)n(CCC2=CCCCC2)c(O)c1/C=N/Nc1ccccc1", "activity change, negative = inhibition": "inactive: -2.74%"},
      {"smiles": "C=CCN1C(=O)NC(=O)/C(=C\\c2ccc(-c3ccccc3[N+](=O)[O-])o2)C1=O", "Potency": "inconclusive: 28.2 µM [inhibitor, single point]"},
      {"smiles": "CCn1c(C)nc2cc(C(=O)N/N=C(\\C)c3ccc(OC)cc3O)ccc21", "Potency": "inconclusive: 10 µM [inhibitor, partial curve, poor fit]"},
      {"smiles": "CC(CCc1ccccc1)NC(=O)COC(=O)c1ccc(S(C)(=O)=O)c([N+](=O)[O-])c1", "note": "(stereo not drawn)", "Potency": "inconclusive: 28.2 µM [inhibitor, single point]"},
      {"smiles": "CN1[C@@H]2CC[C@H]1CC(OC1c3ccccc3CCc3ccccc31)C2", "note": "(stereo partly drawn)", "Potency": "inconclusive: 3.98 µM [inhibitor, partial curve]"},
      {"smiles": "O=C(NCc1cccnc1)/C(=C/c1ccc(-c2cccc(Cl)c2)o1)S(=O)(=O)c1ccccc1", "Potency": "inconclusive: 10 µM [inhibitor, partial curve, poor fit]"},
      {"smiles": "CCN(CC)CCCNc1nc(-n2nc(C)cc2C)nc2sc3c(c12)CC(C)(C)OC3", "Potency": "inconclusive: 20 µM [inhibitor, single point]"},
      {"smiles": "COc1ccc2c(c1)C(=NNc1ccc(C(=O)O)cc1)c1cc(OC)ccc1-2", "Potency": "inconclusive: 10 µM [inhibitor, single point]"},
      {"smiles": "CCOC(=O)[C@]12Cc3cc(Cl)ccc3[C@H]1N(CC(=O)OC)C(=O)c1ccccc12", "Potency": "inconclusive: 12.6 µM [inhibitor, single point]"},
      {"smiles": "CN(C)C(=S)SSC(=S)N(C)C", "Potency": "inconclusive: 28.2 µM [inhibitor, single point]"},
      {"smiles": "c1ccc(Nc2c3c(nc4ccccc24)CCC3)cc1", "Potency": "inconclusive: 10 µM [inhibitor, partial curve]"},
      {"smiles": "Cc1ccc(NC(=O)c2ccccc2NS(=O)(=O)c2ccc(Cl)s2)cc1S(=O)(=O)N1CCOCC1", "Potency": "inconclusive: 10 µM [inhibitor, single point]"},
      {"smiles": "COc1ccc(-c2cc(C(F)(F)F)nc(S(C)(=O)=O)n2)cc1", "Potency": "inconclusive: 28.2 µM [inhibitor, single point]"},
      {"smiles": "Cc1ccc(/C=N/Nc2nncn2N)cc1", "Potency": "inconclusive: 10 µM [inhibitor, partial curve]"},
      {"smiles": "S=C(Nc1ccc(Oc2ccccc2)cc1)NC1CCCC1", "Potency": "inconclusive: 28.2 µM [inhibitor, single point]"},
      {"smiles": "C=CCC[C@@H](Cc1ccc(F)cc1)C(=O)OC[C@@H](C)NC(=O)[C@@H](CC=C)CC(=O)N[C@H](CO)Cc1ccccc1", "activity change, negative = inhibition": "inactive: -9.78%"},
      {"smiles": "Cn1cc(/C=N/n2cnc3scc(-c4ccccc4)c3c2=O)c2ccccc21", "Potency": "inconclusive: 3.98 µM [inhibitor, full curve]"}
    ]}
  ]
}
